# The list shows a part of the results.
# Target: T1, OsWOX13 (Oryza sativa, UniProt Q5QMM3 1-267)
# T1 sequence: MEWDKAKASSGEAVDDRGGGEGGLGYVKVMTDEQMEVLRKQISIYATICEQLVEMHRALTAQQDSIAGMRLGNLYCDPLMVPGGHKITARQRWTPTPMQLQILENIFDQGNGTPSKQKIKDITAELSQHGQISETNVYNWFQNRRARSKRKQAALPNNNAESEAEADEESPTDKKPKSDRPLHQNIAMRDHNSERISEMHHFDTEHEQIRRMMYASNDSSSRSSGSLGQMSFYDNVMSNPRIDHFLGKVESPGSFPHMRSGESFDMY
# Experiment: protein-binding microarray (RPBM); PBS, 2% BSA, 51.3 ng/ul salmon testes DNA, 50 uM zinc acetate, 200 nM TF, 25 C, 1 h; high values mean tight binding
# Details: protein: recombinant; tags: N-terminal polyhistidine and DsRed monomer fusion (pET32a); label: CyDye5-dUTP incorporated in the synthesized complementary strand; 3' TTTTT single-stranded linker to array surface; dsDNA, one strand shown
# Procedure, shortened: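 The binding signal is fluorescence intensity per feature, in arbitrary units, read on an Axon 4000B scanner. Polyhistidine- and DsRed-tagged transcription factors (N-terminal fusions) from E. coli BL21-CodonPlus were purified on Ni–NTA and applied at 200 nM for 1 h at 25 °C to a double-stranded, BSA-blocked custom Agilent array in buffer with 50 µM zinc acetate.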
row,Sequence,binding signal
1,AAACCATTAGCGCATAATTTATTGAGTTTTAATTATTTCACGGAGTCACCTAGTGCAG,6070 fluorescence intensity (a.u.)
2,TAAATAGATTTGCTATGCTACTTGCTATAGAAAATCAGTCCGGAGTCACCTAGTGCAG,21000 fluorescence intensity (a.u.)
3,ACTTTGACTAAATTATCACATCATATTTAACAATAAATTTCGGAGTCACCTAGTGCAG,11000 fluorescence intensity (a.u.)
4,TCCGAAATTGTTGTAATCGATCTGGGTCAGCAGTTCTGCTCGGAGTCACCTAGTGCAG,5720 fluorescence intensity (a.u.)
5,AAAACTAATTATGCAATCCATCGGTAAACCGCAAGATGAACGGAGTCACCTAGTGCAG,13800 fluorescence intensity (a.u.)
6,GTAAAATTAGCAGTTAGAAATCCGGCTTACGTGTAGACTGCGGAGTCACCTAGTGCAG,14000 fluorescence intensity (a.u.)
7,CGTCAAATTCTAATTAATCGTCCGCATAACAACTAATCATCGGAGTCACCTAGTGCAG,9950 fluorescence intensity (a.u.)
8,ATAGTAATCAATGGGCATCTTAGTCATCATGCCATACCTACGGAGTCACCTAGTGCAG,3420 fluorescence intensity (a.u.)
9,GGGTGATCAAATTTGTTTACTCCAAGTTGGTTAATTAGGGCGGAGTCACCTAGTGCAG,8940 fluorescence intensity (a.u.)
10,TATGGAGCTAAAGCCCAGCCAAACAGTTTCAACTCCACCTCGGAGTCACCTAGTGCAG,6520 fluorescence intensity (a.u.)
11,TGTTTGATTTGTATGGATATGACGATCTAATTTCTTATTTCGGAGTCACCTAGTGCAG,16200 fluorescence intensity (a.u.)
12,GAATGTTGTAATTACTCCCTCAGTCTTAATATGTAGCAACCGGAGTCACCTAGTGCAG,7830 fluorescence intensity (a.u.)
13,AATGTCCTGGGAAGTGATTGGTGGAATATTTCTGATCATGCGGAGTCACCTAGTGCAG,10000 fluorescence intensity (a.u.)
14,GTGATTGTATTCTCTCCTTGTGGTAGCTAGTAGTTCACATCGGAGTCACCTAGTGCAG,6890 fluorescence intensity (a.u.)
15,CTATCATATTGACAGCTTTGTAATTGCTTTTGACAGGTTCCGGAGTCACCTAGTGCAG,26400 fluorescence intensity (a.u.)
16,GTAGCAGCATAGAATTTTCATCAATCATATTCAAATACTCCGGAGTCACCTAGTGCAG,3280 fluorescence intensity (a.u.)
17,CAGTTAACGCCATAGATAAATTGGAAGCAAATAAAAGTACCGGAGTCACCTAGTGCAG,3280 fluorescence intensity (a.u.)
18,CAGAAAGATTGGTAATACTGTTACTGTTTTCGAGTGTCGACGGAGTCACCTAGTGCAG,21600 fluorescence intensity (a.u.)
19,ATCAATCACGTCGCCTTACCTAGCTAGCTACCTAGCTGGTCGGAGTCACCTAGTGCAG,10800 fluorescence intensity (a.u.)
20,ATGGATGATTGAACAACAATAGAGAATAAGGGAAAGGGTTCGGAGTCACCTAGTGCAG,26400 fluorescence intensity (a.u.)
21,TGCATCCATCTGCCAAAGATTTTCCAATCAATACATTGCCCGGAGTCACCTAGTGCAG,3530 fluorescence intensity (a.u.)

row,Sequence,binding signal
1,AAATAAGAAATAATTGATGTGATAATTATTAGGCCCCGCCCGGAGTCACCTAGTGCAG,30200 fluorescence intensity (a.u.)
2,CCTGACTACTCTGATTGTCATGCCAACAACTTGGCTTCGCCGGAGTCACCTAGTGCAG,14500 fluorescence intensity (a.u.)
3,CATTGATGGACTGGTCTCATGCAATTCTCCCAGCTCCACCCGGAGTCACCTAGTGCAG,32600 fluorescence intensity (a.u.)
4,AAGTATTGTAATTTCGGTGGATTAAGCTGATTTGTTGCTACGGAGTCACCTAGTGCAG,4450 fluorescence intensity (a.u.)
5,CTGTTAATTTATATACTATACAATAATGTTATAGTATTGCCGGAGTCACCTAGTGCAG,34900 fluorescence intensity (a.u.)
6,AGTTTGAAAATTTAAATTTTAACTTTTAACTTTAACTCGTCGGAGTCACCTAGTGCAG,9590 fluorescence intensity (a.u.)
7,GTGACAGGCTGATTGCTACCTTGCTTGGCGATCTGTGCTTCGGAGTCACCTAGTGCAG,26400 fluorescence intensity (a.u.)
8,GAAAGTAACTGAGATTATCGATGATATGAACATGTACATCCGGAGTCACCTAGTGCAG,3710 fluorescence intensity (a.u.)
9,ATCACTTCATTATCACATGACAGACCAACATATAATGATGCGGAGTCACCTAGTGCAG,5210 fluorescence intensity (a.u.)
10,ACTCTAATTAATCCCACTTCCTCTGTTTCCTCTGCATGCGCGGAGTCACCTAGTGCAG,17700 fluorescence intensity (a.u.)
11,AAAGATTGATAAATGGAGCGAATGGGTATGAAGTGGTGTTCGGAGTCACCTAGTGCAG,25300 fluorescence intensity (a.u.)
12,ACGTATATTCACAATTAAATGTGTTTCTTTCATTGTAACACGGAGTCACCTAGTGCAG,3330 fluorescence intensity (a.u.)
13,TTGTTTGATTTGTTAGGGGTGGTAAGAGCAGCCTTGTATTCGGAGTCACCTAGTGCAG,21000 fluorescence intensity (a.u.)
14,ACTAAACTGATAATATTTTCAAGCTATACAAATAAACTAGCGGAGTCACCTAGTGCAG,22200 fluorescence intensity (a.u.)
15,GCTGTTAATAGGATTTACAATCCGGTGGAAACCGGACCAACGGAGTCACCTAGTGCAG,3240 fluorescence intensity (a.u.)
16,CGTAATTTTGGTATTTACATATGTAATGTAATTTTAAGACCGGAGTCACCTAGTGCAG,25700 fluorescence intensity (a.u.)
17,TTAATTGGTTAAATGATCTTTGTGACTTTAAAATTATTTCCGGAGTCACCTAGTGCAG,22900 fluorescence intensity (a.u.)
18,ATCCAGATTATAATAATCTTAAGCTGAATTAAACAGGCCTCGGAGTCACCTAGTGCAG,6350 fluorescence intensity (a.u.)
19,GTTTGGCTAATGGGATAGGGAATTGAATTCCCACCCACCACGGAGTCACCTAGTGCAG,4880 fluorescence intensity (a.u.)
20,CATCATATCGTTCCAATTTCAATCAAACTTTCAATTTTAGCGGAGTCACCTAGTGCAG,4800 fluorescence intensity (a.u.)
21,TGCTCCATGATTTGTCAAGGTGGAGGACACTGATTCGTTTCGGAGTCACCTAGTGCAG,4200 fluorescence intensity (a.u.)

# From PMC7819943, “Rice protein-binding microarrays: a tool to detect cis-acting elements near promoter regions in rice”
